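Each compound was tested at five concentrations against cells in 96-well plates for 48 hours. The concentration for 50% growth inhibition is given as GI50.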 Certain results were filed several times, with different values. The other results are left out here. An entry can have further records. Records of one sample usually come from different ranges of test concentrations, not given here; a value can be the end of its range.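 TGI marks complete inhibition of growth.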
Experiments:
Experiment in all cases: inhibition of tumour cell growth, NCI panel, 48 h
NCI-H522 lung = system: NCI-H522 lung
MDA-MB-231 breast = system: MDA-MB-231 breast
T-47D breast = system: T-47D breast
SK-MEL-2 melanoma = system: SK-MEL-2 melanoma
UACC-62 melanoma = system: UACC-62 melanoma
EKVX NSCLC = system: EKVX NSCLC
HL-60(TB) leukemia = system: HL-60(TB) leukemia
RXF 393 renal = system: RXF 393 renal
NCI-H460 lung = system: NCI-H460 lung
HCT-15 colon = system: HCT-15 colon
U251 CNS = system: U251 CNS
OVCAR-8 ovarian = system: OVCAR-8 ovarian
NCI-H23 lung = system: NCI-H23 lung
SNB-19 CNS = system: SNB-19 CNS
IGROV1 ovarian = system: IGROV1 ovarian
MALME-3M melanoma = system: MALME-3M melanoma
SF-295 CNS = system: SF-295 CNS
M14 melanoma = system: M14 melanoma
SK-OV-3 ovarian = system: SK-OV-3 ovarian
CCRF-CEM leukemia = system: CCRF-CEM leukemia
KM12 colon = system: KM12 colon
SF-539 CNS = system: SF-539 CNS
COLO 205 colon = system: COLO 205 colon
SF-268 CNS = system: SF-268 CNS
NCI/ADR-RES ovarian = system: NCI/ADR-RES ovarian
ACHN renal = system: ACHN renal
OVCAR-3 ovarian = system: OVCAR-3 ovarian
SK-MEL-5 melanoma = system: SK-MEL-5 melanoma
HS 578T breast = system: HS 578T breast
LOX IMVI melanoma = system: LOX IMVI melanoma
PC-3 prostate = system: PC-3 prostate
BT-549 breast = system: BT-549 breast
RPMI-8226 leukemia = system: RPMI-8226 leukemia
SW-620 colon = system: SW-620 colon
MOLT-4 leukemia = system: MOLT-4 leukemia
A549 NSCLC = system: A549 NSCLC
SN12C renal = system: SN12C renal
DU-145 prostate = system: DU-145 prostate
K-562 leukemia = system: K-562 leukemia
HCC-2998 colon = system: HCC-2998 colon
UO-31 renal = system: UO-31 renal
OVCAR-4 ovarian = system: OVCAR-4 ovarian

In the case of `Nc1ccn([C@@H]2O[C@H](COP(=O)(O)O[C@@H]3C[C@H](n4cc(F)c(=O)[nH]c4=O)O[C@@H]3COP(=O)(O)O[C@@H]3C[C@H](n4cc(F)c(=O)[nH]c4=O)O[C@@H]3COP(=O)(O)O[C@@H]3C[C@H](n4cc(F)c(=O)[nH]c4=O)O[C@@H]3COP(=O)(O)O[C@@H]3C[C@H](n4cc(F)c(=O)[nH]c4=O)O[C@@H]3COP(=O)(O)O[C@@H]3C[C@H](n4cc(F)c(=O)[nH]c4=O)O[C@@H]3COP(=O)(O)O[C@@H]3C[C@H](n4cc(F)c(=O)[nH]c4=O)O[C@@H]3COP(=O)(O)O[C@@H]3C[C@H](n4cc(F)c(=O)[nH]c4=O)O[C@@H]3COP(=O)(O)O[C@@H]3C[C@H](n4cc(F)c(=O)[nH]c4=O)O[C@@H]3COP(=O)(O)O[C@@H]3C[C@H](n4cc(F)c(=O)[nH]c4=O)O[C@@H]3COP(=O)(O)O[C@@H]3C[C@H](n4cc(F)c(=O)[nH]c4=O)O[C@@H]3COP(=O)(O)OCCOCCOCCOCCOCCOCCO)[C@H](O)C2O)c(=O)n1` (some centres not stated), the GI50 (NCI-H522 lung) is reported as 13.3 µM and 54.4 nM, the GI50 (MDA-MB-231 breast) is reported as 4.8 µM and > 100 µM and the GI50 (T-47D breast) is reported as 2.35 µM and > 100 µM. For the same compound, the GI50 (SK-MEL-2 melanoma) was > 21.1 µM and 555 nM, the TGI (UACC-62 melanoma) was 64.3 nM and > 100 µM and the GI50 (EKVX NSCLC) was > 21.1 µM and 541 nM. The GI50 (HL-60(TB) leukemia) was 317 nM and > 100 µM.
With `COc1cc(C2C3=C(COC3=O)Oc3cc4c(cc32)OCO4)cc(OC)c1OC` (configuration not stated) the TGI (RXF 393 renal) was 36.3 nM and 15.1 µM, the TGI (NCI-H460 lung) was 94.9 nM and 13 µM and the TGI (HCT-15 colon) was 154 nM and 16.9 µM. For the same compound, the TGI (U251 CNS) was 244 nM and 12.7 µM, the TGI (OVCAR-8 ovarian) was 267 nM and > 31.6 µM and the TGI (NCI-H23 lung) was 113 nM and > 31.6 µM.
With `CCCCCC(=O)N[C@H]1CCc2cc(OC)c(OC)c(OC)c2-c2ccc(SC)c(=O)cc21` the TGI (SNB-19 CNS) was 85.5 nM and 14.3 µM, the TGI (IGROV1 ovarian) was 97.4 nM and > 100 µM and the TGI (MALME-3M melanoma) was 67.2 nM and 42.9 µM. The TGI (SF-295 CNS) was 55.6 nM and > 100 µM, the TGI (U251 CNS) was 55.5 nM and 10.8 µM and the TGI (OVCAR-8 ovarian) was 68 nM and 11.6 µM. The TGI (M14 melanoma) was 67.7 nM and 11.4 µM.
In the case of `CC(=O)c1cnc2ccc(-c3cc(Cl)c(O)c(Cl)c3)nc2c1NC1CCC(CN(C)C)CC1` (configuration not stated), the GI50 (SK-OV-3 ovarian) is reported as 13.3 nM and 200 nM, the GI50 (CCRF-CEM leukemia) is reported as 10.6 nM and 135 nM and the GI50 (KM12 colon) is reported as 16.6 nM and 231 nM. For the same compound, the TGI (NCI-H522 lung) was 42.2 nM and 545 nM, the GI50 (SF-539 CNS) was 10.7 nM and 110 nM and the TGI (COLO 205 colon) was 125 nM and 1.98 µM. For the same compound, the GI50 (SF-268 CNS) was 21.7 nM and 248 nM, the GI50 (NCI-H460 lung) was 11.7 nM and 199 nM and the TGI (NCI/ADR-RES ovarian) was 249 nM and 4.5 µM. For the same compound, the GI50 (T-47D breast) was 6.14 nM and 121 nM, the TGI (T-47D breast) was 37.2 nM and 482 nM and the GI50 (HCT-15 colon) was 7.95 nM and 131 nM. The TGI (HCT-15 colon) was 363 nM and > 10 µM, the GI50 (IGROV1 ovarian) was 9.88 nM and 170 nM and the TGI (IGROV1 ovarian) was 111 nM and 1.75 µM. For the same compound, the GI50 (ACHN renal) was 12.5 nM and 201 nM, the TGI (ACHN renal) was 221 nM and > 10 µM and the GI50 (OVCAR-3 ovarian) was 8.3 nM and 135 nM. The TGI (SF-295 CNS) was 170 nM and 2.38 µM, the GI50 (SK-MEL-5 melanoma) was 9.36 nM and 141 nM and the GI50 (HS 578T breast) was 12.2 nM and 196 nM. For the same compound, the GI50 (LOX IMVI melanoma) was 15.6 nM and 216 nM, the GI50 (PC-3 prostate) was 18.1 nM and 216 nM and the GI50 (BT-549 breast) was 12.3 nM and 183 nM. The TGI (RPMI-8226 leukemia) was 180 nM and 2.19 µM, the GI50 (SW-620 colon) was 8.83 nM and 139 nM and the GI50 (MOLT-4 leukemia) was 13.1 nM and 240 nM. For the same compound, the TGI (MOLT-4 leukemia) was 86 nM and 914 nM, the GI50 (UACC-62 melanoma) was 13.9 nM and 254 nM and the TGI (UACC-62 melanoma) was 76.1 nM and 827 nM. For the same compound, the TGI (EKVX NSCLC) was 240 nM and 5.53 µM, the GI50 (U251 CNS) was 9.76 nM and 189 nM and the TGI (U251 CNS) was 244 nM and 2.45 µM. For the same compound, the GI50 (A549 NSCLC) was 11.6 nM and 158 nM, the GI50 (SN12C renal) was 9.82 nM and 139 nM and the GI50 (DU-145 prostate) was 20.3 nM and 234 nM. For the same compound, the GI50 (K-562 leukemia) was 8.08 nM and 142 nM, the TGI (OVCAR-8 ovarian) was 290 nM and > 10 µM and the TGI (HCC-2998 colon) was 167 nM and 3.75 µM. The GI50 (UO-31 renal) was 9.25 nM and 119 nM, the GI50 (HL-60(TB) leukemia) was 13.7 nM and 290 nM and the TGI (HL-60(TB) leukemia) was 124 nM and 1.3 µM. For the same compound, the GI50 (M14 melanoma) was 9.52 nM and 111 nM, the GI50 (NCI-H23 lung) was 8.81 nM and 167 nM and the TGI (NCI-H23 lung) was 74.6 nM and 1.97 µM.
For `COC(=O)C1CCC(NC(=O)c2csc([C@@H](C[C@H](C(C)C)N(C)C(=O)[C@@H](NC(=O)[C@H]3CCCCN3C)C(C)C)OC(C)=O)n2)CC1` (some centres not stated), the TGI (MDA-MB-231 breast) was 81.9 nM and > 33.3 µM and the GI50 (OVCAR-4 ovarian) was 41.3 nM and 1.32 µM.

— PubChem BioAssay (NCI)
